# Some of the results follow.
# Tests used:
# Assay in all cases: glycan array binding signal (z-score within array); higher = stronger binding
# Conditions in all cases: glycan notation: IUPAC condensed, linker removed
# [1] = molecular target: Fuc(a1-2)Gal6S(b1-3)GlcNAc6S
# In short: (§1)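 Glycan array data came from 3228 arrays in the Consortium for Functional Glycomics database, and only arrays with an available protein sequence were kept. Glycan names were put into IUPAC-condensed notation, and columns mapping to the same glycan were averaged. The binding signal is a within-array Z-score, averaged across arrays of one protein sequence run at different concentrations or buffers and across linkers. A negative Z-score can be read as non-binding.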
# [2] = molecular target: Fuc(a1-2)Gal6S(b1-4)Glc
# In short: as §1
# [3] = molecular target: Fuc(a1-2)Gal6S(b1-4)Glc6S
# In short: as §1
# [4] = molecular target: Fuc(a1-2)[Gal(a1-3)]Gal
# In short: as §1
# [5] = molecular target: Fuc(a1-2)[Gal(a1-3)]Gal(b1-3)GalNAc
# In short: as §1
# [6] = molecular target: Fuc(a1-2)[Gal(a1-3)]Gal(b1-3)GalNAc(b1-3)Gal(a1-4)Gal(b1-4)Glc
# In short: as §1
# [7] = molecular target: Fuc(a1-2)[Gal(a1-3)]Gal(b1-3)GlcNAc
# In short: as §1
# [8] = molecular target: Fuc(a1-2)[Gal(a1-3)]Gal(b1-3)GlcNAc(b1-2)Man(a1-3)[Fuc(a1-2)[Gal(a1-3)]Gal(b1-3)GlcNAc(b1-2)Man(a1-6)]Man(b1-4)GlcNAc(b1-4)GlcNAc
# In short: as §1
# [9] = molecular target: Fuc(a1-2)[Gal(a1-3)]Gal(b1-3)GlcNAc(b1-2)Man(a1-3)[Fuc(a1-2)[Gal(a1-3)]Gal(b1-3)GlcNAc(b1-2)Man(a1-6)]Man(b1-4)GlcNAc(b1-4)[Fuc(a1-6)]GlcNAc
# In short: as §1
# [10] = molecular target: Fuc(a1-2)[Gal(a1-3)]Gal(b1-3)GlcNAc(b1-3)GalNAc
# In short: as §1
# [11] = molecular target: Fuc(a1-2)[Gal(a1-3)]Gal(b1-3)GlcNAc(b1-6)GalNAc
# In short: as §1
# [12] = molecular target: Fuc(a1-2)[Gal(a1-3)]Gal(b1-4)Glc
# In short: as §1
# [13] = molecular target: Fuc(a1-2)[Gal(a1-3)]Gal(b1-4)GlcNAc
# In short: as §1
# [14] = molecular target: Fuc(a1-2)[Gal(a1-3)]Gal(b1-4)GlcNAc(b1-2)Man
# In short: as §1
# [15] = molecular target: Fuc(a1-2)[Gal(a1-3)]Gal(b1-4)GlcNAc(b1-2)Man(a1-3)[Fuc(a1-2)[Gal(a1-3)]Gal(b1-4)GlcNAc(b1-2)Man(a1-6)]Man(b1-4)GlcNAc(b1-4)GlcNAc
# In short: as §1
# [16] = molecular target: Fuc(a1-2)[Gal(a1-3)]Gal(b1-4)GlcNAc(b1-2)Man(a1-3)[Fuc(a1-2)[Gal(a1-3)]Gal(b1-4)GlcNAc(b1-2)Man(a1-6)]Man(b1-4)GlcNAc(b1-4)[Fuc(a1-6)]GlcNAc
# In short: as §1
# [17] = molecular target: Fuc(a1-2)[Gal(a1-3)]Gal(b1-4)GlcNAc(b1-3)GalNAc
# In short: as §1
# [18] = molecular target: Fuc(a1-2)[Gal(a1-3)]Gal(b1-4)GlcNAc(b1-3)[Fuc(a1-2)[Gal(a1-3)]Gal(b1-4)GlcNAc(b1-6)]GalNAc
# In short: as §1
# [19] = molecular target: Fuc(a1-2)[Gal(a1-3)]Gal(b1-4)GlcNAc(b1-6)GalNAc
# In short: as §1
# [20] = molecular target: Fuc(a1-2)[Gal(a1-3)]Gal(b1-4)[Fuc(a1-3)]Glc
# In short: as §1
# [21] = molecular target: Fuc(a1-2)[Gal(a1-3)]Gal(b1-4)[Fuc(a1-3)]GlcNAc
# In short: as §1
# [22] = molecular target: Fuc(a1-2)[Gal(a1-3)]Gal(b1-4)[Fuc(a1-3)]GlcNAc(b1-3)GalNAc
# In short: as §1
# [23] = molecular target: Fuc(a1-2)[Gal(a1-4)]Gal(b1-4)GlcNAc
# In short: as §1
# [24] = molecular target: Fuc(a1-2)[GalNAc(a1-3)]Gal
# In short: as §1
# [25] = molecular target: Fuc(a1-2)[GalNAc(a1-3)]Gal(b1-3)GalNAc(a1-3)[Fuc(a1-2)]Gal(b1-4)GlcNAc
# In short: as §1
# [26] = molecular target: Fuc(a1-2)[GalNAc(a1-3)]Gal(b1-3)GalNAc(b1-3)Gal(a1-4)Gal(b1-4)Glc
# In short: as §1
# [27] = molecular target: Fuc(a1-2)[GalNAc(a1-3)]Gal(b1-3)GlcNAc
# In short: as §1
# [28] = molecular target: Fuc(a1-2)[GalNAc(a1-3)]Gal(b1-3)GlcNAc(b1-2)Man(a1-3)[Fuc(a1-2)[GalNAc(a1-3)]Gal(b1-3)GlcNAc(b1-2)Man(a1-6)]Man(b1-4)GlcNAc(b1-4)GlcNAc
# In short: as §1
# [29] = molecular target: Fuc(a1-2)[GalNAc(a1-3)]Gal(b1-3)GlcNAc(b1-2)Man(a1-3)[Fuc(a1-2)[GalNAc(a1-3)]Gal(b1-3)GlcNAc(b1-2)Man(a1-6)]Man(b1-4)GlcNAc(b1-4)[Fuc(a1-6)]GlcNAc
# In short: as §1
# [30] = molecular target: Fuc(a1-2)[GalNAc(a1-3)]Gal(b1-3)GlcNAc(b1-3)GalNAc
# In short: as §1
# [31] = molecular target: Fuc(a1-2)[GalNAc(a1-3)]Gal(b1-3)GlcNAc(b1-6)GalNAc
# In short: as §1
# [32] = molecular target: Fuc(a1-2)[GalNAc(a1-3)]Gal(b1-4)Glc
# In short: as §1
# [33] = molecular target: Fuc(a1-2)[GalNAc(a1-3)]Gal(b1-4)GlcNAc
# In short: as §1
# [34] = molecular target: Fuc(a1-2)[GalNAc(a1-3)]Gal(b1-4)GlcNAc(b1-2)Man
# In short: as §1
# [35] = molecular target: Fuc(a1-2)[GalNAc(a1-3)]Gal(b1-4)GlcNAc(b1-2)Man(a1-3)[Fuc(a1-2)[GalNAc(a1-3)]Gal(b1-4)GlcNAc(b1-2)Man(a1-6)]Man(b1-4)GlcNAc(b1-4)GlcNAc
# In short: as §1
# [36] = molecular target: Fuc(a1-2)[GalNAc(a1-3)]Gal(b1-4)GlcNAc(b1-2)Man(a1-3)[Fuc(a1-2)[GalNAc(a1-3)]Gal(b1-4)GlcNAc(b1-2)Man(a1-6)]Man(b1-4)GlcNAc(b1-4)[Fuc(a1-6)]GlcNAc
# In short: as §1
# [37] = molecular target: Fuc(a1-2)[GalNAc(a1-3)]Gal(b1-4)GlcNAc(b1-3)Gal(b1-4)GlcNAc
# In short: as §1
# [38] = molecular target: Fuc(a1-2)[GalNAc(a1-3)]Gal(b1-4)GlcNAc(b1-3)Gal(b1-4)GlcNAc(b1-3)Gal(b1-4)GlcNAc
# In short: as §1
# [39] = molecular target: Fuc(a1-2)[GalNAc(a1-3)]Gal(b1-4)GlcNAc(b1-3)GalNAc
# In short: as §1
# [40] = molecular target: Fuc(a1-2)[GalNAc(a1-3)]Gal(b1-4)GlcNAc(b1-3)[Fuc(a1-2)[GalNAc(a1-3)]Gal(b1-4)GlcNAc(b1-6)]GalNAc
# In short: as §1
# [41] = molecular target: Fuc(a1-2)[GalNAc(a1-3)]Gal(b1-4)GlcNAc(b1-6)GalNAc
# In short: as §1
# [42] = molecular target: Fuc(a1-2)[GalNAc(a1-3)]Gal(b1-4)[Fuc(a1-3)]GlcNAc
# In short: as §1
# [43] = molecular target: Fuc(a1-2)[GalNAc(a1-3)]Gal(b1-4)[Fuc(a1-3)]GlcNAc(b1-3)GalNAc
# In short: as §1
# [44] = molecular target: Fuc(a1-2)[GalNAc(a1-4)]Gal(b1-4)GlcNAc
# In short: as §1
# [45] = molecular target: Fuc(a1-2)[GalNAc(b1-3)]Gal
# In short: as §1
binder,measurement,setting,value
SBD-G4S3-SBD (protein) MASIPSSASVQLDSYNYDGSTFSGKIYVKNIAYSKKVTVVYADGSDNWNNNGNIIAASFSGPISGSNYEYWTFSASVKGIKEFYIKYEVSGKTYYDNNNSANYQVSTGGGGSGGGGSGGGGSEFASIPSSASVQLDSYNYDGSTFSGKIYVKNIAYSKKVTVVYADGSDNWNNNGNIIAASFSGPISGSNYEYWTFSASVKGIKEFYIKYEVSGKTYYDNNNSANYQVST,glycan array binding signal (z-score),[1],-0.245
same,glycan array binding signal (z-score),[2],-0.378
same,glycan array binding signal (z-score),[3],-0.389
same,glycan array binding signal (z-score),[4],-0.356
same,glycan array binding signal (z-score),[5],-0.379
same,glycan array binding signal (z-score),[6],-0.327
same,glycan array binding signal (z-score),[7],-0.291
same,glycan array binding signal (z-score),[8],-0.381
same,glycan array binding signal (z-score),[9],-0.314
same,glycan array binding signal (z-score),[10],-0.334
same,glycan array binding signal (z-score),[11],-0.322
same,glycan array binding signal (z-score),[12],-0.3
same,glycan array binding signal (z-score),[13],-0.393
same,glycan array binding signal (z-score),[14],-0.356
same,glycan array binding signal (z-score),[15],1.24
same,glycan array binding signal (z-score),[16],-0.319
same,glycan array binding signal (z-score),[17],-0.369
same,glycan array binding signal (z-score),[18],-0.308
same,glycan array binding signal (z-score),[19],-0.359
same,glycan array binding signal (z-score),[20],-0.34
same,glycan array binding signal (z-score),[21],-0.41
same,glycan array binding signal (z-score),[22],0.033
same,glycan array binding signal (z-score),[23],-0.371
same,glycan array binding signal (z-score),[24],0.401
same,glycan array binding signal (z-score),[25],1.17
same,glycan array binding signal (z-score),[26],-0.303
same,glycan array binding signal (z-score),[27],-0.354
same,glycan array binding signal (z-score),[28],-0.339
same,glycan array binding signal (z-score),[29],-0.403
same,glycan array binding signal (z-score),[30],0.66
same,glycan array binding signal (z-score),[31],0.142
same,glycan array binding signal (z-score),[32],-0.412
same,glycan array binding signal (z-score),[33],-0.347
same,glycan array binding signal (z-score),[34],-0.414
same,glycan array binding signal (z-score),[35],6.16
same,glycan array binding signal (z-score),[36],-0.329
same,glycan array binding signal (z-score),[37],-0.377
same,glycan array binding signal (z-score),[38],0.034
same,glycan array binding signal (z-score),[39],-0.37
same,glycan array binding signal (z-score),[40],-0.315
same,glycan array binding signal (z-score),[41],-0.365
same,glycan array binding signal (z-score),[42],-0.214
same,glycan array binding signal (z-score),[43],4.46
same,glycan array binding signal (z-score),[44],0.702
same,glycan array binding signal (z-score),[45],1.26
